Drawing on the RNAGym collection of RNA variant scans (doi:10.7554/elife.90254), this text covers self-cleavage for 19 variants.

The chains are these.
B1: LINE1-full (parent)
chain: UACGUAGGUGGUUUUCCCCUGAUAGUGCUAAGGGGGCCUGGAAGUUUGGACUGGGCAGAGCUCAACACAGCGUGGCAAAGUGGCUGUGGCUAGACUGCCUCUCUGGAUUCCUCGUCACUCAGCAGGGCAUCUCUGAGAGAAAUGCC

Read counts are not given, so values of variants with three or more changes are uncertain.

In the data set the parent is B1. Briefly: self-cleavage, relative activity (ratio to wild type); higher = more cleavage; in vitro, sequencing; the parent is a self-cleaving ribozyme.
With UACGUAGGUGGUUUUCCCCUGAUAGUGCUAAGGGGGCCUGGAAGUUUGGUCUGGGCAGAGCUCAACACAGCGUGGCAAAGUGGCUGUGGCUAGACUGCCUCUCUGGAUUCCUCGUCGCUCAGCAGGGCAUCUCUGAGAGAAGUGCC [A50U A117G A142G], the self-cleavage worked out at 1.46.

Take UACGUAGGUGGUUUUCCCCUGAUAGUGCUAAGGGGGCCUGGAAGUUUGGGCAGGGCAGAGUUCAACACAGCGUGGCAAAGUGGCUGUGGCUAGACUGCCUCUCUGGAUUCCUCGUCACUCAGCAGGGCAUCUCUGAGAGAAACGCC [A50G U52A C61U U143C]: the self-cleavage stood at 0. With UACGUAGGUGGUUUUCCCCUGAUAGUGCUAAGGGGGCCUGGAAGUUUGGGCUGGGCAGAGCUCAACACAGCGUGGCAAAGUGGCUGUGGCUAGACUGCCUCUCUGGAUUCCUCGUCACCCAGCAGGGCAUCUCUGAGGGAAAUGCC [A50G U119C A138G], the self-cleavage turned out to be 0.61.

For UACGUAGGUGGUUUUCCCCUGAUAGUGCUAAGGGGGCCUGGAAGUUUGGGCUGGGCAGAGCACAACACAGCGUGGCAAAGUGGCUGUAGCUAGACUGCCUCUCUGGAUCCCUCGUCACUCAGCAGGGCACCUCUGAGAGAAAUGCC [A50G U62A G88A U109C U130C], the self-cleavage was found to be 0.07. The figure for UACGUAGGUGGUUUUCCCCUGAUAGUGCUAAGGGGGCCUGGAAGUUUGGUCUGGGCAGAGCUCAACACGGCGUGGCAAAGUGGCUGUGGCUAGACUGCCUCUCUGGAUUCCUCGUCACUCAGCAGGGCAUCUCUGAGGGAAAUGCC [A50U A69G A138G] is 1.15; for UACGUAGGUGGUUUUCCCCUGAUAGUGCUAAGGGGGCCUGGAAGUUUGGGCUGGGCAGAGCUCAACACAGCGUGGCAAAGAGGCCGUGGCUAGACUGCCUCUCUGGAUUCCUUGUCGCUCAGCAGGGCAUCUCUGAGGGAAAUGCC [A50G U81A U85C C113U A117G A138G] it is 0.13; for UACGUAGGUGGUUUUCCCCUGAUAGUGCUAAGGGGGCCUGGAAGUUUGGGCUGGGCAGAGCUCAACACAGCGCGGCAAAGUGGCUGUGGCUAGACUGCCUCUCUGGAUUCCUCGUCACUCAGCAGGGCAUCUCUGAGAGGAAUGCC [A50G U73C A140G] it is 2.02. To UACGUAGGUGGUUUUCCCCUGAUAGUGCUAAGGGGGCCUGGAAGUUUGGGCUGGGCAGAGCUCAACACAGCGUGGCAAAGUGGCUGUGGCUAGACUGCCUCUCUGGAUACCUCGUCACUCAGCAGGGCAUCUCUGAGAGAGAUGCC [A50G U109A A141G] belongs 1.34; to UACGUAGGUGGUUUUCCCCUGAUAGUGCUAAGGGGGCCUGGAAGUUUGGUCUGGGCAGAGCUCAACACAGCGUGGCAGAGUGGCUGUGGCUAGACUGCCUCUCUGGAUUCCUUGUCACUCAGCAGGGCAUCUCUGAGAGAAAUGCC [A50U A78G C113U], 0.59. As for UACGUAGGUGGUUUUCCCCUGAUAGUGCUAAGGGGGCCUGGAAGUUUGGGCUGGGCAGAGCUCAACACAGCGUGGCAAAGUGGCUGUGGCUAGACUGCCUCUCAGGAUUCCUCGUCACUCAGCAGGGCAUCUCUGAGAGAAAAGCC [A50G U104A U143A], the self-cleavage was 1.08.

In the case of UACGUAGGUGGUUUUCCCCUGAUAGUGCUAAGGGGGCCUGGAAGUUUGGGCUGGGCAGAGCUCAACACAGCGUGGCAAAGUGGCUGUGGCUAGACUGCCUCUCCGGAUUCCUCGUUACUCAGCAGGGCAUCUCUGAGAGAAAUGCC [A50G U104C C116U], the self-cleavage came to 0.6.

In the case of UACGUAGGUGGUUUUCCCCUGAUAGUGCUAAGGGGGCCUGGAAGUUUGGUCUGGGCAGAGCUCAACUCAGCGUGGCAAAGUGGCUGUGGCUAGACUGCCUCUCUGGAUACCUCGUCACUCAGCAGGGCAUCUCUGAGAGAAAUGCC [A50U A67U U109A], the self-cleavage was determined as 0.04. In the case of UACGUAGGUGGUUUUCCCCUGAUAGUGCUAAGGGGGCCUGGAAGUUUGGGCUGGGCAGAGCUCAACACAGCGUGGCAAAGUGGCUGUGGCUAGACGGCCUCUCUGGAUUCCUCGUCACUCGGCAGGGCAUCUCUGAGAGAAAUGCC [A50G U96G A121G], the self-cleavage is 0. To UACGUAGGUGGUUUUCCCCUGAUAGUGCUAAGGGGGCCUGGAAGUUUGGGCUGGGCAGAGCUCAACACAGCGUGGCAAAGUGGCUGCGGCUAGACUGCCUCUCUGGAUUCCUCGUCACUCAGCAGGGCUUCUCUGAGAGAAAUGCC [A50G U87C A129U] belongs 0; to UACGUAGGUGGUUUUCCCCUGAUAGUGCUAAGGGGGCCUGGAAGUUUGGUCUGGGCAGAGCUCAACACAGCGUGGCAAAGUGGCUGUGGCUAGACUGCCUCUCUGGGUUCCUCGUCACUCAGCAGGGCAUCUCUGAGAGAAAUGGC [A50U A107G C145G], 0.93.

As to UACGUAGGUGGUUUUCCCCUGAUAGUGCUAAGGGGGCCUGGAAGUUUGGGCUGGGCAGAGCUCAACACAGCGUGGCAAAGUGGCUGUGGCUAGACUGCCUCUCUGGAUUCCUCGUCACUCAGCAGGGCACCUCUGAGAGAAUUGCC [A50G U130C A142U], the self-cleavage is 1.17. For UACGUAGGUGGUUUUCCCCUGAUAGUGCUAAGGGGGCCUGGAAGUUUGGGCUGGGCAGAGCUCAACACAGCGUGGCAAAGUGGCUGUGGCUAGACUGCCUCUCUGGAUUCCUCGUCACUCAGCAGGGCACCUCUGAGAGAAGUGCC [A50G U130C A142G], the self-cleavage is 1.92. The figure for UACGUAGGUGGUUUUCCCCUGAUAGUGCUAAGGGGGCCUGGAAGUUUGGUCUGGGCAGAGCUCAACACAGCGUGGCAAAGUGGCUGUGGCUAGACUGCCUCUCUGGGUUCCUCGUCACUCAGCAGGGCUUCUCUGAGAGAAAUGCC [A50U A107G A129U] is 0.76; for UACGUAGGUGGUUUUCCCCUGAUAGUGCUAAGGGGGCCUGGAAGUUUGGGCUGGGCAGAGCUCAACACAGCGUGGCAAAGUGGCUGUGGCUAGACUGCCUCUCUGGAACCCUCGUCACUCAGCAGGGCAUCUCUGAGAGAAAUGCC [A50G U108A U109C] it is 1.84.
